Results: PubChem BioAssay AID1159614 (National Center for Advancing Translational Sciences (NCATS), 2016)
The whole screen tested about 45,000 compounds, of which about 65 (0.1%) were called active. Calls come from the whole dose curve; as a rule, active = well fitted activation curve with a large enough effect; inconclusive = small, poorly fitted or top-dose-only effect; inactive = no such curve, though single readings can be large or run the other way. The list shows a part of the results.

target: Galactocerebrosidase (Homo sapiens) (UniProt P54803); assay: A Novel Cell-Based Assay to Identify Small Molecules for B -Galactocerebrosidase; settings: 145M-Twi-hGALC-G270D cells (Twitcher mouse brain line with human GALC G270D), HMU-beta-Gal fluorescence, 48 h; series mostly up to 57.5 µM; activation: at the top concentration; note: 0% is about no effect; nearly all actives have a fitted effect of over 65% in size
In short: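 Mutant human GALC (G270D), stably expressed in a Twitcher mouse brain cell line lacking endogenous GALC, is measured in live-treated cells via 6-hexadecanoylamino-4-methylumbelliferyl-β-galactoside hydrolysis (0.1 mM final, pH 5.2) with fluorescent detection.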

Chain of UniProt P54803 (P54803 whole entry, looked up): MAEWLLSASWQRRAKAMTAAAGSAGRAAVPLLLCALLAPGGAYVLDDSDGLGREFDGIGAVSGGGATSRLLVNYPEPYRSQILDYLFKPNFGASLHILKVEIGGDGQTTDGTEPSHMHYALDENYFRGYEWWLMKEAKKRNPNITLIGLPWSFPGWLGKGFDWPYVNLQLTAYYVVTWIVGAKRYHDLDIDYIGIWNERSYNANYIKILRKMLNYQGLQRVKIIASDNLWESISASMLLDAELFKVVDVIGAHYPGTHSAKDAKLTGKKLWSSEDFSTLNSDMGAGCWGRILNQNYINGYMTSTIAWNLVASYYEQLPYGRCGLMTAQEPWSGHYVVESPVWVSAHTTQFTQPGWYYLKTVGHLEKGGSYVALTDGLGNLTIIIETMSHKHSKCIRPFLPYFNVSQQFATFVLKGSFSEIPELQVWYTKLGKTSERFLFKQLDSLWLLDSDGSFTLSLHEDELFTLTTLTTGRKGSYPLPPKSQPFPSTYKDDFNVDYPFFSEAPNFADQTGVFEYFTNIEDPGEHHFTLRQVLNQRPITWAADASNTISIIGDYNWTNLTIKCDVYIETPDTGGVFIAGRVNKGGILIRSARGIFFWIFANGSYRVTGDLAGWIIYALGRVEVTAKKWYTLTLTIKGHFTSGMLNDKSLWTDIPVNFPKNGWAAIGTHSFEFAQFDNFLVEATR

activation, inactive:
Cc1cc(-c2nc3ncccc3o2)ccc1NC(=O)COc1ccc(C(C)(C)C)cc1 -10%
CCOc1ccc(NC(=O)Cn2cnc3nc4c(cc3c2=O)CCCC4)cc1 -8.18%
COc1ccc(CCNC(=O)Cn2c(C)c3cnn(-c4ccccc4)c(=O)c3c2C)cc1OC -11%
COc1ccc(-c2cc(C)no2)cc1S(=O)(=O)Nc1cccc(C(F)(F)F)c1 -19.2%
Cc1c(CCNC(=O)c2ccc(C(F)(F)F)cc2)sc2nc(-c3ccc(F)cc3)nn12 -7.87%
CC1=C(C(N)=O)C(c2ccc(C(C)C)cc2)n2nc(SCc3ccccc3F)nc2N1 (stereo not given) -11.3%
CCn1cc2nc(SCc3cccc(C(F)(F)F)c3)n(CCc3ccccc3)c(=O)c2n1 -14.5%
Cc1cc(O)c(C)c(C)c1O -5.5%
Fc1ccc(-n2ncc3c(Nc4ccc(Oc5ccc(Cl)cc5)cc4)ncnc32)cc1 -10.5%
COc1ccc(-c2[nH]c(-c3ccc(F)cc3)nc2SCC(=O)Nc2ccc(OC)c(OC)c2)cc1 -10.5%
CCOC(=O)c1ccc(NC(=O)Cn2nnc(-c3ccc(C(F)(F)F)cc3)n2)cc1 -21.7%
Cc1ccc(-c2csc(=Nc3ccccc3)n2CCCO)cc1 -21.9%
CNC(=O)c1ccc(NC(=O)c2nsc3ccccc23)cc1 -3.68%
CCOC(=O)c1ccc(OCC2c3cc(OC)c(OC)cc3CCN2C(=O)Cc2ccc(OC)c(OC)c2)cc1 (stereo not given) -13.1%
CCN1Cc2cccc(C(=O)Nc3ccc(F)cc3)c2C1=O -0.169%
COc1ccc2c(c1)c(N1CCCC1=O)c(C(=O)Nc1ccc(Cl)cc1C)n2C -21.1%
Cc1ccc(N2CC(c3nnc(Cc4ccc(F)cc4Cl)o3)CC2=O)cc1 (stereo not given) -18.1%
CCCCNC(=O)c1ccc(-c2nc(CS(=O)(=O)c3ccc(C)cc3)c(C)o2)cc1 -17.7%
CC1=C(c2ccc(Cl)cc2)S(=O)(=O)N=C1N1CCN(c2cccc(C)c2)C(C)C1 (stereo not given) -2.48%
COC(=O)CNC(c1ccccc1)c1cc(Br)ccc1NC(=O)c1cc(OC)c(OC)c(OC)c1 (stereo not given) -15%
COC(=O)c1ccc(OC)c(Cn2c(=O)n(-c3cccc(Cl)c3)c(=O)c3c2c2cc(C)ccc2n3C)c1 6.94%
CCc1ccc(NC(=O)CCS(=O)(=O)c2ccc3c(c2)oc(=O)n3C)cc1 -13.5%
CCOC(=O)c1c(-c2ccc(C)cc2)csc1NC(=O)c1ccc(C(C)(C)C)cc1 1.85%
Cc1ccc(-n2c(SCc3nc(-c4ccccc4C)no3)nnc2-c2ccncc2)cc1C -20.8%
COC(=O)c1c(NC(=O)c2ccc(S(=O)(=O)N3CCCCC3)cc2)sc2c1CCN(C)C2 4.49%
COc1ccc(CCNC(=O)CCCn2c(=O)c3ccccc3n(CC(=O)Nc3c(C)cc(C)cc3C)c2=O)cc1OC -4.1%
C[C@@H]1C[C@H]2[C@@H]3CCC4=CC(=O)C=C[C@]4(C)[C@@]3(F)[C@@H](O)C[C@]2(C)[C@@]1(O)C(=O)COC(=O)c1ccncc1 -5.48%
Cc1ccc(O)c(NC(=O)CCS(=O)(=O)c2nc(-c3ccc4c(c3)OCO4)cc(C(F)(F)F)n2)c1 -22.9%
COc1ccc(S(=O)(=O)N(CC(=O)Nc2cccnc2)c2ccc(C)cc2)cc1OC -8.59%
COc1cc2c(=O)n(CCC(=O)NCC3CCCO3)c(=O)n(CC(=O)Nc3ccc(F)cc3)c2cc1OC (stereo not given) 1.9%
CCOc1ccccc1CNC(=O)c1cc(-c2ccc(C)c(C)c2)nc2ccccc12 6.53%
CCn1c(CN2CCCCC2)nc2cc(NC(=O)c3ccc([N+](=O)[O-])cc3)ccc21 -9.88%
CCOc1ccccc1NC(=O)COc1ccc(S(=O)(=O)NC2CCCCC2)cc1 -11%
Cc1ccc(-n2nnc(-c3nsc(NC(=O)c4ccc(C)c(C)c4)n3)c2C)cc1 13.9%
O=c1[nH]c(=O)n([C@H]2C[C@H](O)[C@@H](CO)O2)cc1I -8.47%
CCc1ccc(CNC(=O)CCn2c(=O)c3cccn3c3ccc(F)cc32)cc1 -9.91%
Cc1ccc(C(=O)Nc2nc(-c3ccccc3)ns2)cc1 -24.6%
CCn1c(=O)c2sccc2n2c(CCC(=O)Nc3ccc(OC)c(Cl)c3)nnc12 -8.26%
Cc1ccc(NC(=O)Cn2nnc(C(=O)NCCc3ccccc3)c2N)cc1C -15%
Cc1oc2ncn(C)c(=O)c2c1C(=O)NCCCN(Cc1ccccc1)C(C)C -6.5%
CC(C)Oc1ccc(CNC(=O)C2CCN(c3nc4ccccc4n(C)c3=O)CC2)cc1 -8.12%
CCc1ccc(C2NC(=O)c3[nH]nc(-c4cccc(OC)c4)c32)cc1 (stereo not given) -8.94%
COc1cccc2sc(N3CCN(C(=O)CCS(=O)(=O)c4ccc(F)cc4)CC3)nc12 -55.1%
CCCCN(CCN(CCCC)C(=O)N1CCOCC1)C(=O)N1CCOCC1 45.3%
Cc1ccc(CNC(=O)C(=O)NCC(c2cccnc2)N2CCN(c3ccccc3F)CC2)cc1 (stereo not given) -10.4%
Cc1ccsc1CN(C(=O)c1oc2ccccc2c1C)C1CCS(=O)(=O)C1 (stereo not given) -9.5%
Cc1ccc(C)c(Cn2c3ccccc3c3cnn(CC(=O)NC(C)c4ccccc4)c(=O)c32)c1 (stereo not given) -3.24%
COc1ccccc1CC(=O)Nc1ccc2nc(N3CCC(C)CC3)cc(C)c2c1 -15.2%
CS(=O)(=O)N1CCc2cc(C(=O)Nc3cccc(F)c3)ccc21 -17.3%
CCCCN1C(=O)C(O)(c2c(C)[nH]c3ccccc23)c2ccccc21 (stereo not given) -19.5%
CCCOc1ccccc1C1Oc2nc(SC)nnc2-c2ccccc2N1C(C)=O (stereo not given) -15.9%
COCCNC(=O)Cn1ncc2c(C)n(Cc3ccc(C)cc3)c(C)c2c1=O -6.55%
CCOC(=O)c1ccc(-c2ccc(/C=C(\C#N)C(=O)Nc3ccc(C)cc3OC)o2)cc1 -4.68%
N[C@@H](COP(=O)(O)O)C(=O)O -8.07% [at 23.8 µM]
CCCNC(=O)CN1CCN(c2ncc(NC(=O)c3ccc(Cl)cc3)cc2C(=O)O)CC1 -8.1%
CC(C)(C)C(=O)OC1=CN(Cc2ccccc2)S(=O)(=O)c2ccccc21 -5.94%
CSc1ccc(C2c3c(oc4ccccc4c3=O)C(=O)N2CCCN2CCOCC2)cc1 (stereo not given) -21.2%
CCOc1ccc(C(=O)c2cn(Cc3ccc(F)cc3)c3ccc(F)cc3c2=O)cc1 -4.33%
Cc1ccc(C)c(CNC(=O)c2cnc3sc(N4CCCC4)nn3c2=O)c1 -10.9%
Cc1ccc(CN(Cc2ccco2)C(=O)c2oc3ccc(C)cc3c2C)cc1 -22.6%
